Data from PubChem BioAssay AID504333 (National Center for Advancing Translational Sciences (NCATS), 2011).
The campaign covered roughly 360,000 compounds. About 16,000 (4.4%) were called active. Inconclusive results, whose numbers are uncertain, are shown with a selection of clear calls. Calls come from the whole dose curve; as a rule, active = well fitted inhibition curve with a large enough effect; inconclusive = small, poorly fitted or top-dose-only effect; inactive = no such curve, though single readings can be large or run the other way. A potency beside an inconclusive call is a rough fit, not a confirmed value.

Molecular target: Bromodomain adjacent to zinc finger domain protein 2B (Homo sapiens) (UniProt Q9UIF8)
Sequence of UniProt Q9UIF8 (Q9UIF8 whole entry, looked up, the tested form may be a part): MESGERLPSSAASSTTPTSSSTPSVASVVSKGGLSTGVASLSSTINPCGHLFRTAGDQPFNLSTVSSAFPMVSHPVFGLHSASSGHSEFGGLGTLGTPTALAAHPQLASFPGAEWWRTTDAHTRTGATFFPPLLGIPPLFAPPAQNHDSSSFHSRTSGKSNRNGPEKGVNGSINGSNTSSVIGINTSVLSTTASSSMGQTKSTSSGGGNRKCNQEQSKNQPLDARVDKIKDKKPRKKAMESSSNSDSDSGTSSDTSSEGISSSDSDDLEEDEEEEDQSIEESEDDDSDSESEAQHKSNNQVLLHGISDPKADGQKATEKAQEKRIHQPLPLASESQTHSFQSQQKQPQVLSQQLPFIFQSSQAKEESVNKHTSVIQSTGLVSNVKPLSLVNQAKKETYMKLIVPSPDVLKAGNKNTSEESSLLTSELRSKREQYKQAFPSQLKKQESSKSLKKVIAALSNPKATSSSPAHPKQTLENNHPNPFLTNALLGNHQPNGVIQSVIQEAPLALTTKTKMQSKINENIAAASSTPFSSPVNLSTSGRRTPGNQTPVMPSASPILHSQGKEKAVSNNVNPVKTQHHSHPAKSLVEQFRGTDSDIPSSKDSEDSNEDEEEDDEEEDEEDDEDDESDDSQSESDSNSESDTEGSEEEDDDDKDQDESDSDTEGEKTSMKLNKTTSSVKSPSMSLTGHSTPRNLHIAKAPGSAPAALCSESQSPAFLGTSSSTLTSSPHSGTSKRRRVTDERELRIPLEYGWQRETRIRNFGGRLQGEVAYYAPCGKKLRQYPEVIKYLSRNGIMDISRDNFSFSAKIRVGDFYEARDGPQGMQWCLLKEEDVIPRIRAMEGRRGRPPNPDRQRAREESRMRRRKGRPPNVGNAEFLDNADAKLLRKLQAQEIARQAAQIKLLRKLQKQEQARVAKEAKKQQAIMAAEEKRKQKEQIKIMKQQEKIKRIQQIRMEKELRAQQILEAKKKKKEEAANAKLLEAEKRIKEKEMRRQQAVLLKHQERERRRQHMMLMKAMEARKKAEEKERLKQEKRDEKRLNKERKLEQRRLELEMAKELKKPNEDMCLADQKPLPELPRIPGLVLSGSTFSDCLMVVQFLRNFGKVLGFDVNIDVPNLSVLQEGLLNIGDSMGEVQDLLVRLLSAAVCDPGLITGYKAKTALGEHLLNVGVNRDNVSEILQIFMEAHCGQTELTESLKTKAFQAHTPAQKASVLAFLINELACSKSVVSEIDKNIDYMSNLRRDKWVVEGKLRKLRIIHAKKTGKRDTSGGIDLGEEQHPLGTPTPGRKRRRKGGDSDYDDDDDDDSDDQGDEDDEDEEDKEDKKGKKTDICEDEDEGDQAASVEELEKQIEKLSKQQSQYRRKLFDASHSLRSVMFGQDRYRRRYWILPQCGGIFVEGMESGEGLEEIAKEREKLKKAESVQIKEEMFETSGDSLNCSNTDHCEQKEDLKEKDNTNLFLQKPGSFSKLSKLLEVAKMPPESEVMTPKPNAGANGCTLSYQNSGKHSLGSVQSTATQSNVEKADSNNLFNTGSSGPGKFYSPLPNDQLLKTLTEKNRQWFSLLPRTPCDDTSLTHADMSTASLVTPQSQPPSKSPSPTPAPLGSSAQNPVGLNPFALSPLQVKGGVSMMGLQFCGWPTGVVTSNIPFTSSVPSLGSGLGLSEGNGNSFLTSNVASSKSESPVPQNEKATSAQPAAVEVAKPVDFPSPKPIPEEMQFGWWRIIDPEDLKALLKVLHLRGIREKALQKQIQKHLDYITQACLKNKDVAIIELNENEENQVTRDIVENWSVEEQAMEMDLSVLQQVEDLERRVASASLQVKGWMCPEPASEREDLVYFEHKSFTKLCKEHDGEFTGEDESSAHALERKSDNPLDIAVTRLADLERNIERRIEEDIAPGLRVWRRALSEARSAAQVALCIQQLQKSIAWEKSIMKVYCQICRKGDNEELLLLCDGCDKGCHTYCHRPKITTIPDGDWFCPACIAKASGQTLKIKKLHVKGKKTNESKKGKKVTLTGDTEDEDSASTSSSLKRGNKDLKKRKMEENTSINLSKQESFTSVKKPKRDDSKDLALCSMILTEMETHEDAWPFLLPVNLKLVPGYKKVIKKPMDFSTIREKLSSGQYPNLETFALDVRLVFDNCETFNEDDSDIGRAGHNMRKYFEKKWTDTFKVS
Assay: qHTS Assay for Inhibitors of BAZ2B; note: nearly all actives have a fitted effect of over 60% in size
Conditions: AlphaScreen BAZ2B-H3K14Ac peptide displacement; series mostly up to 114 µM
In short: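 Protein-peptide AlphaScreen: BAZ2B 50 nM, b-H3K14Ac 50 nM, 1x PBS pH 7.4 + 0.01% Tween-20. Preincubation 30 min RT; cpd 30 min RT (top 110 uM); beads 20 min RT, light-protected.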
Potency is the fitted concentration of half-maximal effect; tags give direction and shape of the fitted curve.

Compound	Potency
CCN1C(=O)/C(=C/c2ccc(C)s2)SC1=Nc1ccc(OC)cc1	inconclusive: 10 µM [inhibitor, full curve, poor fit]
CC12CCC(c3nnc(SCc4ccc(Cl)cc4)nc31)C2(C)C (centres undefined)	inactive
CCOc1ccc(NCC2CCOC(C)(C)C2)cc1 (centres undefined)	inconclusive: 79.4 µM [inhibitor, single point]
O=C(NC(=S)NNC(=O)c1ccccc1O)c1ccco1	inconclusive: 35.5 µM [inhibitor, full curve, poor fit]
Cc1c(C(=O)N/N=C/c2ccc(-c3ccccc3[N+](=O)[O-])o2)sc(N)c1C#N	inconclusive: 89.1 µM [inhibitor, single point]
CCOC(=O)N1CCN(C(=O)CCCn2c(=S)[nH]c3ccccc3c2=O)CC1	inconclusive: 89.1 µM [inhibitor, single point]
CCCCOC(=O)CSc1nc(N)c(C#N)c(-c2ccc(OC)cc2)c1C#N	inactive
Cc1cc(C)cc(NC(=S)N2CCN(CCO)CC2)c1	inconclusive: 3.55 µM [inhibitor, single point]
CCOc1ccc(CNS(=O)(=O)c2cc(CN3C(=O)c4cccnc4C3=O)ccc2OC)cc1	inconclusive: 50.1 µM [inhibitor, partial curve]
COc1ccc(-c2cn3ccccc3n2)cc1OC	inconclusive: 70.8 µM [inhibitor, single point]
O=C(NCc1ccccc1Cl)c1ccc2c(O)c(S(=O)(=O)c3ccccc3)c(=O)[nH]c2c1	inconclusive: 89.1 µM [inhibitor, single point]
CC(C)c1cccc(C(C)C)c1NC(=O)CNCC(O)c1ccccc1 (centres undefined)	active: 50.1 µM
O=C(Nc1ccccc1)/C(=C/c1ccc2c(c1)OCO2)NC(=O)c1ccco1	inactive
C=CCOc1ccc(/C=C2\SC(=S)N(C(C(=O)O)c3ccccc3)C2=O)cc1 (centres undefined)	inconclusive: 44.7 µM [inhibitor, partial curve]
CCc1ccc(NC(=O)Cn2c(=O)n(CCC(=O)NCc3ccc4c(c3)OCO4)c(=O)c3ccccc32)cc1	inconclusive: 89.1 µM [inhibitor, single point]
C=CCn1c(COc2ccccc2-c2ccccc2)nnc1SCC(=O)NC(=O)NCc1ccco1	inconclusive: 50.1 µM [inhibitor, partial curve]
CCC1CN(C(=O)Nc2cc(C)cc(C)c2)c2ccccc2O1 (centres undefined)	inconclusive: 35.5 µM [inhibitor, partial curve]
CSC1=NSC2=NC(=O)/C(=C\c3coc4ccccc4c3=O)C(=N)N12	inconclusive: 100 µM [inhibitor, single point]
NC(=O)c1ccc(NCc2ccco2)c([N+](=O)[O-])c1	inconclusive: 10 µM [inhibitor, partial curve]
Cc1ccc(/C=C2\SC(=S)N(CCCC(=O)Nc3ccccn3)C2=O)cc1	inconclusive: 3.98 µM [inhibitor, full curve, poor fit]
CCN(CC)S(=O)(=O)c1cc(C(=O)Nc2cc(C)on2)ccc1Cl	inconclusive: 79.4 µM [inhibitor, single point]
Cc1ccc(C(=O)NCC(c2cccnc2)N2CCc3ccccc32)cc1C (centres undefined)	inconclusive: 79.4 µM [inhibitor, partial curve]
O=C(O)c1ccc(-n2nnnc2SCc2ccccc2F)cc1	inactive

Compound	Potency
Cc1cccc(NC(=S)NCCc2ccc3c(c2)OCCO3)c1C	inconclusive: 79.4 µM [inhibitor, single point]
CCc1ccc(OCCn2ccnc2)cc1	inconclusive: 89.1 µM [inhibitor, single point]
O=C(Nc1ccc(-c2cccc(F)c2)cc1)C1CCCN(Cc2ccccn2)C1 (centres undefined)	inconclusive: 3.55 µM [inhibitor, full curve]
Cc1cccc(OCC(=O)Nc2ccccc2N2CCCC2)c1C	inactive
O=[N+]([O-])c1ccc(N2CCN(S(=O)(=O)c3ccccc3)CC2)cc1	inconclusive: 89.1 µM [inhibitor, single point]
Cc1ccc(CCC(=O)Nc2ccc(Cl)cc2)o1	inconclusive: 56.2 µM [inhibitor, partial curve]
CCc1cc(C(=O)c2ccccc2OC)c(N)s1	inconclusive: 70.8 µM [inhibitor, single point]
CCOC(=O)C1CCN(C(=O)c2ccc3c(c2)S(=O)(=O)c2ccccc2C3=O)CC1	inconclusive: 50.1 µM [inhibitor, partial curve]
COCCCNCCCCSc1ccc(Cl)cc1	inconclusive: 89.1 µM [inhibitor, single point]
CC[C@H](C)[C@@H]1NC(=O)c2cc([N+](=O)[O-])cc(I)c2SC[C@@H](C(N)=O)NC(=O)[C@H](CCCCN)NC1=O	active: 70.8 µM
CN(C)S(=O)(=O)c1ccc2c(c1)nnn2CCNC(=O)Nc1ccc(Br)cc1	inactive
CCCC(=O)NC(c1ccc(OC)cc1)c1ccc2cccnc2c1O (centres undefined)	active: 20 µM
O=C(Nc1nnc(-c2ccccc2Cl)o1)c1cccnc1	inconclusive: 89.1 µM [inhibitor, single point]
Cc1ccc(C)c(NC(=O)NNC(=O)c2cc3occc3[nH]2)c1	inconclusive: 14.1 µM [inhibitor, partial curve]
O=C(Nc1ccc(N2CCOCC2)c(S(=O)(=O)Nc2ccc(Cl)cc2)c1)c1cnccn1	inconclusive: 70.8 µM [inhibitor, single point]
CCCOc1cccc(-c2cc(-c3n[nH]c(=S)n3CC)c3ccccc3n2)c1	inconclusive: 44.7 µM [inhibitor, partial curve]
CCOc1ccc(S(=O)(=O)NCc2ccc3c(c2)OCO3)cc1	inactive
CC(C)(C)c1cc(-n2ccnc2)n2ncc(-c3ccc(Cl)cc3)c2n1	inactive
O=C(O)C[C@@H]1C(=O)O[C@@H]2C(COC(=O)c3cc(O)c(O)c(O)c3)O[C@@H](OC(=O)c3cc(O)c(O)c(O)c3)[C@@H](OC(=O)c3cc(O)c(O)c4c3[C@H]1[C@H](O)C(=O)O4)[C@H]2OC(=O)c1cc(O)c(O)c(O)c1 (some centres undefined)	active: 0.708 µM
CCOC(=O)c1ccc(NC(=O)C(Cc2ccccc2)NS(=O)(=O)c2ccc(Br)s2)cc1 (centres undefined)	inactive
CN(Cc1ccco1)Cc1ccc(O)c2ncccc12	active: 3.16 µM
Cc1ccc(S(=O)(=O)NCCSc2nnnn2-c2ccc(Cl)c(C(=O)O)c2)cc1	inactive
CCOc1ccc(-n2nc3cc(C)c(N)cc3n2)cc1	inconclusive: 89.1 µM [inhibitor, single point]

Compound	Potency
COc1cc(/C=C/C(=O)c2ccc3c(c2)OCO3)cc(Cl)c1O	inconclusive: 50.1 µM [inhibitor, partial curve]
COc1ccc(-c2[nH]nc3oc(=O)c(CCO)c(C)c23)cc1	inactive
COc1cc(N)c(C(O)c2nccc3cc(OC)c(OC)cc23)cc1OC (centres undefined)	inconclusive: 89.1 µM [inhibitor, single point]
COC(=O)CC1Oc2ccccc2N(Cc2ccccc2)C1=O (centres undefined)	inconclusive: 89.1 µM [inhibitor, single point]
Cc1ccc(S(=O)(=O)N2CCOCC(=O)NCCOCCNC(=O)COCC2)cc1	inactive
O=C1CC(c2ccccc2Cl)=NN(c2ncnc3ccccc23)C1=O	inconclusive: 79.4 µM [inhibitor, single point]
Cc1ccc(C)c(N2CCN(c3cc(C)nc4c(-c5ccc(Cl)cc5)c(C)nn34)CC2)c1	inactive
O=C(NC1CCSc2ccccc21)c1cccc(Cl)c1 (centres undefined)	inconclusive: 56.2 µM [inhibitor, partial curve]
NCCNc1ccc([N+](=O)[O-])c(NC2CC2)c1	inconclusive: 89.1 µM [inhibitor, single point]
Nc1nnc(CC(=O)N/N=C/c2ccc(-c3ccccc3)o2)s1	inconclusive: 79.4 µM [inhibitor, single point]
Cc1ccc(NC(=S)N2CCC(c3nc4ccccc4s3)CC2)cc1C	inconclusive: 70.8 µM [inhibitor, single point]
O=C(NCC(c1cccs1)N1CCOCC1)c1ccc(Cl)nc1 (centres undefined)	inactive
CCOc1ccccc1NC(=S)N1CCN(c2ccccc2)CC1	inconclusive: 89.1 µM [inhibitor, single point]
Cn1cc(C(=O)N2CCN(c3cccc(C(F)(F)F)c3)CC2)c2c3ccccc3n(C)c2c1=O	inactive
Cc1ccc(CSc2nnc(-c3ccccn3)n2C)cc1	inconclusive: 89.1 µM [inhibitor, single point]
Fc1ccc(N2CCN(Cc3ccccn3)CC2)cc1	active: 50.1 µM
CCOC(=O)C1CCN(CC(=O)Nc2ccc(OC)c(Cl)c2)CC1	active: 50.1 µM
COc1ccc(NC(=O)C(=O)NCC(c2ccco2)N2CCc3ccccc3C2)cc1OC (centres undefined)	inactive
Cc1ccc([N+](=O)[O-])cc1S(=O)(=O)Nc1ccc(C(=O)NCc2ccccn2)cc1	inconclusive: 100 µM [inhibitor, single point]
C=CCn1c(Cc2ccccc2)nc2c(cnn2-c2ccccc2)c1=O	inactive
O=C(Nc1ccc(Cl)c(-c2nc3cc(Cl)ccc3o2)c1)c1cc([N+](=O)[O-])ccc1N1CCOCC1	inconclusive: 89.1 µM [inhibitor, single point]
O=C(NCc1ccc(/C=c2\sc3n(c2=O)CCN=3)o1)C(=O)Nc1ccccc1	inconclusive: 56.2 µM [inhibitor, partial curve, poor fit]
COc1ccc(OC)c(S(=O)(=O)CC(=O)c2cc3ccc(OC)cc3oc2=O)c1	inconclusive: 56.2 µM [inhibitor, partial curve]
